# This is one part of the list.
# System: PfAP2-HC AP2 domain (GST-tagged)
# Assay: gcPBM binding intensity (ln(normalized median fluorescence intensity)); higher = stronger DNA binding
# Procedure, shortened: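 The highest Masliner-normalised natural-log median intensity across replicate spots of either probe orientation is reported as binding intensity. GST-tagged P. falciparum DNA-binding domains expressed in E. coli were applied for 1 h to an Agilent 4 × 180k array of primer-extended double-stranded 36-bp intergenic genomic probes plus negative controls, and bound protein was detected with Alexa488 anti-GST antibody and scanned at 488 nm.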
row,Sequence,gcPBM binding intensity (ln)
1,TATATTATATGTATTGCACACCTTCAACAACTACTT [CACACA_site8121],9.96
2,TTTAATTAGGATAATTGTACTGAACTAAGTATATTT [XGTACX_site1871],9.23
3,TATTATTTTATGAATACACACATATACGAAAATATT [CACACA_site964],9.67
4,AATTATTGTATGCTATACGTTCCCCTCTAATTTATC [CACACA_negctrl_site1052],9.72
5,ATTGGGTACAAATACACACACATATAAATATTAATA [CACACA_site7173],10.2
6,TATTTTTATATAATGTGTACTTATACCTTATTTTTT [XGTACX_site1658],9.78
7,TATATTTTTTTTGTGCGTACATACCATTTTAATAAT [XGTACX_site2751],9.83
8,CACAAACAAAAACACACACACACACCCACAAAAATG [CACACA_site2429],11
9,TACATATTTATATACACACACACCGTCCGTGTTAAA [CACACA_site7413],10.2
10,CTAAAAATCTTTTGTTGTACTTTTAGATAATCAGGA [XGTACX_site3968],9.25
11,AAGTAAAAAAATAGCACACACACAAAAACACAGACA [CACACA_site4839],10.7
12,AAAGGGATGTTCATTCTTTTTTTTTTTTTTGTATAT [CACACA_negctrl_site511],9.49
13,AAAAAAAAAAAACACACACACACACTAATACATACA [CACACA_site8135],10.6
14,TTTCCCTACCAAAAATGTACTTATAAGCGTTTTTAT [XGTACX_site739],9.66
15,TTTTTAAATTATTGCACACAAAAATGAAAGGAAAAA [CACACA_site1455],9.7
16,CACTAAAATAAACACACACACACACCGATATATATA [CACACA_site9379],10.8
17,CTTGTCATTTTGCACACACACATGTATAGGTTATTA [CACACA_site7431],10.6
18,TATATTTATATGATAACACACATAAATTATACATTT [CACACA_site1671],9.59
19,TTAATTTTATTTTTTTGTACACATAAATATTATAAA [XGTACX_site4680],9.63

row,Sequence,gcPBM binding intensity (ln)
1,TTTTTTTAAATATACACACACATTTATACCTATATA [CACACA_site7572],10.1
2,TATATATATATAGACACACACACACCCATATATATA [CACACA_site4117],10.9
3,TATAACTATAAAAGTAGTACACATATATATTATATA [XGTACX_site1391],9.69
4,AATGGTTTAAAATACTGTACATATATATAAAAGTAA [XGTACX_site6187],9.69
5,TTCCTAATTGACAACACACACAACAAAAAAGGGATT [CACACA_site1279],10.2
6,TACCTTTTTTGTTTTATGCACACCATATAACCAAGG [CACACA_site30],9.77
7,TAAAAAAAAAAAAAAGCATGCTATATTATATTACAC [TGCATGCA_site241],9.62
8,AAGAAATATTTATACACACACACAAACATATAAATA [CACACA_site6981],11.1
9,TATAACTATTCACAGACATGCACATAATAACAATAA [TGCATGCA_site207],9.7
10,TTTTTTTTTCCGTGTTGTACAAAAAAAAAGATTTTG [XGTACX_site3925],9.4
11,AGTCTGAATAAAATTACACACATATACATATATATA [CACACA_site1780],9.78
12,TAAATATATTAAGCTTGTACATGAAAAAAAAAAAAA [XGTACX_site3264],9.47
13,AAAAAAAAAAAAAAAACACACAATAAAGTAAAATTT [CACACA_site135],9.66
14,ATATATAAATTTTAGTGTACATTAATTTTTTTTTTT [XGTACX_site7782],9.64
15,TATGTATATAAATTAACACACATATGTGGTTAATAG [CACACA_site3143],9.64
16,TATATTTATTTATATACACACATATTTATAAATATA [CACACA_site7047],9.69
17,AGATTTAAATATCATACACACTTTATCTATAATACA [CACACA_site6581],9.61
18,TAGTTGTTTATAACACGTTGACAGAAATGTTATGTA [GTGCAC_negctrl_site624],9.55
19,CAAAATTGACATGACGCACACAAGTGTAGATATTTT [CACACA_site1250],9.97

row,Sequence,gcPBM binding intensity (ln)
1,GTACAAAAATAAATTGCACACATTTTAATAAAAAAA [CACACA_site2130],9.75
2,ATTTTTTTTTTTAAATGTACATAATATATATATAAT [XGTACX_site2686],9.54
3,TCTCTCTTATAAAATACACACGAACAATCATATTAT [CACACA_site8065],9.68
4,AAAAAAATTTGTATCACACACGTATTATAAAAAAAT [CACACA_site4182],9.89
5,TATTCGTGCAATAATGGTACACTTATAAATTATTCA [XGTACX_site1430],9.56
6,TATTAAACTAAATGTAGTACATACACAAACGTAATC [XGTACX_site4905],9.71
7,CGAACATTATAAATGTCATTTTTTCCAACTTGATCT [GTGCAC_negctrl_site501],9.55
8,AAGCATTTCCATGGTGGTACTATACAAATAATAATT [XGTACX_site6193],9.52
9,TATAAATAATGTTAAACACACATACCGATATATAAC [CACACA_site7306],9.83
10,AGTGTATTTTTATGTTGTACATGTAATATTTTTGAT [XGTACX_site541],9.84
11,TATATAATATATTAATGTACGTTATATGTATTCCTT [XGTACX_site6140],9.93
12,CTTTTTTTTTAAATATCACACACATATAATATATTC [CACACA_site9222],10
13,TACAGATATTCATATAAACACACATACAAATTATGT [CACACA_site7929],9.88
14,TAATTCATCATATGCACACACAATACCAAAATGTGC [CACACA_site191],10.1
15,AAACAGAATGCATATACACACATACAAAAAAGTGCA [CACACA_site6591],10
16,TGTGTACCGATATTAAGTTTAACGTTATAAAAATAT [CACACA_negctrl_site1547],9.55
17,TTTCTAAACCGGTACAGTACATATAAAAATAGAATA [XGTACX_site6662],9.7
18,AAAGGACAAAAAAATGCATGCCGTTAAATTATGTAC [TGCATGCA_site512],9.68

# — the supplement of paper PMC11417369
